Data taken from PubChem BioAssay AID1745853 (National Center for Advancing Translational Sciences (NCATS), 2022).
Some of the results follow. Further columns of the screen follow, without active or inactive calls.

How the values were obtained:
Experiment in all cases: Primary Screen for Target Class Profiling of Small Molecule Inhibitors of Methyltransferases
[1] = target: Glycine N-methyltransferase (Homo sapiens) (UniProt Q14749); conditions: purified enzyme, MTase-Glo SAH luminescence; measured here: GNMT inhibition; at 40 µM; stronger effect = lower value
Method in brief: (§1)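 Each enzyme was reacted with SAM and its substrate, with compounds tested once at 40 uM; SAH formed was read by MTase-Glo luminescence.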

[2] = target: Guanidinoacetate N-methyltransferase (Homo sapiens) (UniProt Q14353); conditions: purified enzyme, MTase-Glo SAH luminescence; measured here: GAMT inhibition; at 40 µM; stronger effect = lower value
Method in brief: as §1

[3] = target: Histamine N-methyltransferase (Homo sapiens) (UniProt P50135); conditions: purified enzyme, MTase-Glo SAH luminescence; measured here: HNMT inhibition; at 40 µM; stronger effect = lower value
Method in brief: as §1

[4] = target: Nicotinamide N-methyltransferase (Homo sapiens) (UniProt P40261); conditions: purified enzyme, MTase-Glo SAH luminescence; measured here: NNMT inhibition; at 40 µM; stronger effect = lower value
Method in brief: as §1

[5] = target: Phenylethanolamine N-methyltransferase (Homo sapiens) (UniProt P11086); conditions: purified enzyme, MTase-Glo SAH luminescence; measured here: PNMT inhibition; at 40 µM; stronger effect = lower value
Method in brief: as §1
% is set by controls: 0 for no effect and ±100 for the full control effect.

Row | SMILES | activity change, negative = inhibition [1] [%] | activity change, negative = inhibition [2] [%] | activity change, negative = inhibition [3] [%] | activity change, negative = inhibition [4] [%] | activity change, negative = inhibition [5] [%]
1 | O=C(Cn1nc2nc(Nc3ccc(F)cc3)ccn2c1=O)NC1CCCC1 | 6.15 | 0 | 11 | 2.74 | 5.59
2 | Cc1ccc(-c2n[nH]n3c2nc(=O)c2ccc(C(=O)N4CCN(c5ccccc5)CC4)cc23)cc1 | -5 | -0.42 | -4.09 | 1.16 | 0.53
3 | COc1cc(C2OCC3C(c4ccc(OC5OC(CO)C(O)C(O)C5O)c(OC)c4)OCC23)ccc1O (stereo not given) | -3.68 | -8.21 | 5.07 | -17.5 | -7.82
4 | CO[C@H](C)[C@H](N)C(=O)N1CCC(c2cc(Cc3ccccc3)[nH]n2)CC1 | 0.427 | 3.85 | 2.83 | -5.66 | 0.181
5 | COC(=O)c1ccccc1O[C@@H]1O[C@H](CO)[C@@H](O)[C@H](O)[C@H]1O[C@@H]1O[C@@H](C)[C@H](O)[C@@H](O)[C@H]1O | -1.84 | 2.73 | 0.618 | -8.31 | 1.58
6 | CC1=NOC2(CCN(Cc3ccncc3)CC2)C1 | -1.78 | -0.223 | 0.797 | -3.61 | -3.08
7 | Cc1ccc(C(=O)C(C)n2nc3n(C)c(=O)c4ccc(C(=O)NC5CCCCC5)cc4n3c2=O)cc1C (stereo not given) | 0.475 | 2.34 | 6.25 | -5.13 | -4.41
8 | COC(=O)c1ncn2c1C(=O)N(C1CC1)C(C)(C(=O)NCc1ccc(C)cc1)C2 (stereo not given) | -5.71 | 2.52 | -4.41 | -8.17 | -5.38
9 | C=C1CCC2(OC1)OC1CC3C4CC=C5CC(O)CC(O[C@@H]6OC[C@H](OC(=O)C(O)C(C)CC)[C@H](O)[C@H]6O[C@@H]6O[C@@H](C)[C@H](O)[C@@H](O)[C@H]6O)C5(C)C4CCC3(C)C1C2C (stereo not given in full) | 5.2 | 11.3 | 9.54 | 1.16 | 0.483
10 | Cc1cccc(N2C(=O)c3ccc(-c4ccco4)n3CC2(C)C(=O)NC2CCCC2)c1C (stereo not given) | 1.99 | 0.055 | 2.86 | 0.88 | -1.83
11 | COc1ccccc1C(=O)N1CCC(C(=O)N2CCC(N3Cc4ccccc4C3=O)CC2)CC1 | -4.37 | -5.33 | -4.6 | -13.4 | -6.7
12 | CC1(C)CCCC2(C)C3=C(C(=O)OC3O)C(O)CC12 (stereo not given) | 0.85 | 8.3 | 9.46 | -6.55 | 3.75
13 | Cc1ccc(S(=O)(=O)N2CCCCCC2c2nnc(C)o2)c(C)c1 (stereo not given) | -3.59 | -1 | 1.3 | -11 | -2.09
14 | CC(=O)NCc1cn[nH]c1-c1ccc(Cl)cc1 | -1.36 | -2.51 | 0.389 | -0.1 | -2.72
15 | COc1ccccc1-c1ccnc(N[C@H]2CO[C@H]3[C@@H]2OC[C@@H]3NS(=O)(=O)c2cccs2)n1 | -1.72 | -3.37 | -0.368 | -4.48 | -7.88
16 | C1CCC[C@H]2CCCN3CC[C@@H](CCCCCC[C@@H]4CCCN5CC[C@@H](CC1)O[C@@H]45)O[C@@H]23 | 0.338 | – | 10.8 | – | –
17 | CCc1ccc(CNC(=O)c2ccc3c(=O)nc4c(-c5cccc(F)c5)n[nH]n4c3c2)cc1 | 0.636 | 4.05 | 5.16 | -7.36 | -5.24
18 | CCOC(=O)c1cc2n(n1)CC(C)(C(=O)NCCC(C)C)N(CCc1cccs1)C2=O (stereo not given) | 1.05 | 4.51 | 5.03 | -0.534 | 0.199
19 | O=C(c1n[nH]c2ccccc12)N1CCC2(CC1)N(c1ccccc1)C(=O)CS2=O (stereo not given) | -3.62 | -0.508 | 1.25 | -2.13 | -0.848
20 | NC[C@@H]1O[C@H](c2ccccc2)Cc2c1ccc(O)c2O | -16.5 | 10.2 | -25.2 | -5.06 | 3.55

Row | SMILES | activity change, negative = inhibition [1] [%] | activity change, negative = inhibition [2] [%] | activity change, negative = inhibition [3] [%] | activity change, negative = inhibition [4] [%] | activity change, negative = inhibition [5] [%]
21 | CC1(CO)CC[C@]2(C(=O)O[C@@H]3O[C@H](CO)[C@@H](O)[C@H](O)[C@H]3O)CC[C@]3(C)C(=CCC4[C@@]5(C)CC[C@H](O[C@@H]6O[C@H](C(=O)O)[C@@H](O)[C@H](O)[C@H]6O)C(C)(C)C5CC[C@]43C)C2C1 (stereo not given in full) | -0.915 | -2.36 | 5.1 | -11.1 | -8.37
22 | Cc1ccccc1CCNC(=O)CCn1ccc2cc(S(=O)(=O)N3CCCCC3)ccc21 | -9.6 | -3.02 | 0.163 | -14.1 | -6.79
23 | CN(C)CCN(C)[C@H]1[C@@H]2OC[C@@H](O2)[C@@H](NC(=O)Nc2cccc(C#N)c2)[C@@H]1O | -1.81 | 0.193 | 0.158 | 1.38 | 17.1
24 | CCc1nnc([C@@H]2CC(F)(F)CN2C(=O)c2ocnc2C)o1 | -2.83 | -0.581 | -0.936 | -7.05 | 4.91
25 | Cc1ccc(CN2C(=O)c3ccc(-c4ccccc4)n3CC2(C)C(=O)NC2CCCCCC2)cc1 (stereo not given) | 7.26 | 0 | 3.49 | 4.39 | 2.85
26 | CCCCCOc1ccc(C2SC(=O)NC2=O)cc1OCC (stereo not given) | -5.78 | -9.78 | 8.82 | -21.1 | -3.03
27 | Cc1ccc(-c2c(-c3nn(C)c4ncnc(N5CCC(N6CCCCC6)C5)c34)cnn2C)cc1 (stereo not given) | -2.66 | 5.76 | 4.57 | -21.8 | 0.524
28 | COc1ccc(N2C(=O)c3ccc(-c4ccco4)n3CC2(C)C(=O)NC2CCCC2)cc1 (stereo not given) | 3.99 | 0.133 | 6.57 | 8.8 | -0.251
29 | c1nc(NC2CCCCCC2)c2cc(CNC[C@H]3CCCO3)sc2n1 | -12.6 | -7.34 | -25 | -28.1 | -20.5
30 | Cc1nc2ccc(CN(C)c3ccc(C(=O)N[C@@H](CCC(=O)O)C(=O)O)s3)cc2c(=O)[nH]1 | – | 7.82 | – | -7.05 | 5.16
31 | CCOC(=O)c1cc2n(n1)CC(C)(C(=O)NCCC(C)C)N(c1ccc(OC)cc1)C2=O (stereo not given) | -0.912 | 2.4 | 1.61 | 7.83 | -3.66
32 | Cc1cc(C)n(CC(=O)N2CCC3(CC2)CC(CN2CCOCC2)N(C)C3)n1 (stereo not given) | -2.55 | -8.5 | 0.666 | -6.53 | -1.19
33 | O=C(CCc1ccccc1)NCC1CCCCC(=O)N1 (stereo not given) | -1.2 | 0.433 | 0.642 | 1.21 | 3.01
34 | COc1ccc(-c2nnc3n(Cc4ccc(C)cc4)c(=O)c4ccccc4n23)cc1 | -10.6 | 4.04 | 1.97 | 1.22 | -2.35
35 | Cc1cccc(Cn2nc3n(CC(C)C)c(=O)c4ccc(C(=O)NC5CCCCC5)cc4n3c2=O)c1 | 5.54 | 1.82 | 6.7 | 7.63 | 4.28
36 | Cc1ccc(N2C(=O)c3cc4sccc4n3CC2(C)C(=O)NC2CCCC(C)C2C)c(C)c1 (stereo not given) | -6.19 | 5 | -2.65 | 0.711 | -1.56
37 | CC(C)Cn1c(=O)c2ccc(C(=O)NC(C)C)cc2n2c(=O)[nH]nc12 | -4.33 | 0 | 6.02 | 7.37 | -6.02
38 | O=C(Cn1ccc2cc(S(=O)(=O)N3CCCCC3)ccc21)N1CCOCC1 | -3.27 | -2.54 | -0.894 | -3.25 | -3.06
39 | CC(NC(=O)c1cc2n(n1)CC(C)(C(=O)NC1CCCC1)N(C)C2=O)c1ccc2c(c1)OCCO2 (stereo not given) | -3.15 | -1.88 | 0.231 | -4.5 | -1.88
40 | COC1CC(OC2CCC3(C)C(=CCC4C3C(OC(C)=O)C(OC(=O)/C=C/c3ccccc3)C3(C)C(C(C)O)CCC43O)C2)OC(C)C1OC1CC(OC)C(OC2OC(C)C(OC3OC(CO)C(O)C(O)C3O)C(OC)C2O)C(C)O1 (stereo not given) | 1.11 | 11.6 | 3.06 | 1.89 | 8.05

Row | SMILES | activity change, negative = inhibition [1] [%] | activity change, negative = inhibition [2] [%] | activity change, negative = inhibition [3] [%] | activity change, negative = inhibition [4] [%] | activity change, negative = inhibition [5] [%]
41 | CC(=O)N1CCN(c2cc(-c3noc([C@@H]4CCCN4Cc4ccccc4)n3)ccn2)CC1 | -11 | -8.33 | -12.4 | -15.2 | -9.42
42 | Cc1ccc(C(=O)N2CCCCCNC(=O)[C@@H]3CCC[C@@H]32)s1 | 1.42 | 2.28 | 0.429 | 0.816 | -1.03
43 | CCN1CCCCC12Cc1ccccc1CN(S(=O)(=O)c1ccccc1)C2 (stereo not given) | -4.54 | -7.57 | -7.07 | -9.72 | -6.83
44 | CCOC(=O)c1ccnc(CNCC(=O)N(CC)CCN(C)C)c1 | 4.96 | 4.4 | 5.58 | -5.56 | 6.5
45 | O=S(=O)(c1cccc(-c2nc(-c3ccccc3)no2)c1)N1CCN(c2ccccc2F)CC1 | -1.51 | 0.525 | -5.54 | -4.78 | -5.72
46 | Cc1cc(N2CCN(C(=O)Oc3ccc(-c4ccccc4)cn3)CC2)c2ccccc2n1 | -48.3 | -0.487 | -11.1 | -25.2 | -7.5
47 | CSc1ccc(CCNC(=O)CCCn2ccc3cc(S(=O)(=O)N4CCCC4)ccc32)cc1 | -1.21 | 1.49 | 0.703 | -1.03 | 0.878
48 | Cc1ccccc1CN1C(=O)c2cc3occc3n2CC1(C)C(=O)NC1CCCC(C)C1C (stereo not given) | -2.74 | 2.95 | 6.74 | 1.21 | -0.27
49 | NOCC(=O)O | 7.87 | 5.42 | 14.1 | -4.39 | 2.58
50 | CCCn1c(=O)c2ccccc2n2c(SCc3ccc(C)cc3)nnc12 | -8.97 | 1.71 | 9.34 | -12.2 | 5.58
51 | COc1cc2ncnc(Nc3ccc(O)cc3)c2cc1OC | -7.46 | 3.63 | -6.4 | -16.4 | -6.17
52 | COc1ccc(N(C(=O)c2cccs2)S(=O)(=O)c2ccc3c(c2)n(C)c(=O)n3C)cc1 | -8.01 | 3.85 | -5.13 | -23.2 | -4.5
53 | c1cc(Nc2cc(C3CC3)[nH]n2)nc(Nc2ccc3nc[nH]c3c2)n1 | -29 | -5.2 | -26 | -34 | -17.8
54 | Cc1cc(C)c(CNC(=O)c2cc(-c3cnn(C)c3C)cc3c2OCCN3C)c(=O)[nH]1 | -75.5 | -66.9 | -81.3 | -65.9 | -55
55 | Cc1ccc(NC(=O)N2CCC(n3c(C)cnc3-c3cccnc3)C2)cc1C (stereo not given) | 0.889 | -0.81 | -1.72 | 4.63 | 2.68
56 | O=C1NC[C@@H](CCC(=O)N2CCc3ccccc32)N2C[C@@H](NS(=O)(=O)c3ccccc3)C[C@@H]12 | -4.07 | -1.97 | -0.165 | -4.1 | -0.71
57 | O=C(C1CCCC1)N1CC2(CCN(Cc3ccccn3)C2)OCc2ccccc21 (stereo not given) | -0.752 | -3.89 | -0.956 | -2.77 | -4.07
58 | CC(=O)NC1CC2(CCN(C(=O)C3CCN(C)CC3)CC2)c2ccccc21 (stereo not given) | -5.9 | -6.59 | -47.3 | -10.2 | -15.1
